Reference: paper PMC4336329 (PLoS ONE, 2015)
The campaign covered roughly 310,000 compounds. About 14,000 (4.5%) showed an effect of 50% or more. Effects have a minus sign here. This is one part of the list.

target: human ether-à-go-go-related gene (hERG) potassium channel (human, UniProt Q12809); experiment: primary screen, population patch clamp on CHO cells stably expressing hERG
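Note: peak tail current of the secondary pulse compared with the same well before compound.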

Sequence of human ether-à-go-go-related gene (hERG) potassium channel (Q12809 whole entry, looked up): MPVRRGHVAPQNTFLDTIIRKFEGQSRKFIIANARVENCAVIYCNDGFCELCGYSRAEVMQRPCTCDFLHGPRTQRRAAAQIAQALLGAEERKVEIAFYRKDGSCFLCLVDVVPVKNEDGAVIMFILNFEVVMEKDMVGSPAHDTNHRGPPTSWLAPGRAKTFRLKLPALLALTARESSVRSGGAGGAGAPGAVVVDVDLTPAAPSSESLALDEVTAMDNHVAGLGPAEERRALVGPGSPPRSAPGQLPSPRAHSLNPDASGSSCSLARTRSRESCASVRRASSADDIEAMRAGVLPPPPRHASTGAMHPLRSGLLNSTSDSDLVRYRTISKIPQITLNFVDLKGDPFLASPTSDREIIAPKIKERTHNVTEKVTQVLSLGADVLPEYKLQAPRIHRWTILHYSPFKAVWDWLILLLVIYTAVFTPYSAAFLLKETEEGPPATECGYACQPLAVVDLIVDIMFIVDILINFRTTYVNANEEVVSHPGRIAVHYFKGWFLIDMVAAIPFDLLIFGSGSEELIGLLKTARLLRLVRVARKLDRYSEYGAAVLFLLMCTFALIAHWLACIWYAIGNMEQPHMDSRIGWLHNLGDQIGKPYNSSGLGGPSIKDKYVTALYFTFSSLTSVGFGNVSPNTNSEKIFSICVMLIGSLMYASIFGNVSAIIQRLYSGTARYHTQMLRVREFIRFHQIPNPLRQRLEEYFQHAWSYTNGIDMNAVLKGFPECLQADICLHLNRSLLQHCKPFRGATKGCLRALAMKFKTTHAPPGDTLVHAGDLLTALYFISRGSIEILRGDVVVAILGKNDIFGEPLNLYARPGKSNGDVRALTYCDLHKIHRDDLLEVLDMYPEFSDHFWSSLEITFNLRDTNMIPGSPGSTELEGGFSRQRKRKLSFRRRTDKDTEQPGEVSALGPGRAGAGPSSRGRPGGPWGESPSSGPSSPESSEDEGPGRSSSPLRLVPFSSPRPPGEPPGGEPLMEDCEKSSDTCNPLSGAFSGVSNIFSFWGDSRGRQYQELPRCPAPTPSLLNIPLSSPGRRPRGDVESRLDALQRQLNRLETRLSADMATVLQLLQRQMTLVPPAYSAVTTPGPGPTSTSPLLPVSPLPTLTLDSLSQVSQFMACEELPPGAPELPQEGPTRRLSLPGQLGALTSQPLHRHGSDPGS

Row | SMILES | hERG current change (%, negative = inhibition) at 10uM [%]
1 | Cc1ccccc1N(C)C(=O)C1CCCN(c2ncnc3c2nc2n3CCCCC2)C1 (stereo not drawn) | -7.96
2 | Cc1nc(COc2ccccc2Cl)sc1-c1ccnc(N)n1 | -4.73
3 | Cc1ccc(-n2c(=O)c3c4c(sc3n3c(C)nnc23)COC(C(C)C)C4)cc1 (stereo not drawn) | 11.1
4 | COc1ccc(NC(=O)c2cccc(S(=O)(=O)N(C)c3ccccc3)c2)cn1 | -24.6
5 | NNC(=O)c1snnc1-c1ccccc1 | 12.9
6 | COC(=O)c1cc(OC)nc(OC)c1 | 22.1
7 | Cc1ccc(N2C(=O)c3ccccc3C2Nc2ccc(S(=O)(=O)N3CCCCC3)cc2)nc1 (stereo not drawn) | -2.37
8 | COc1ccc(S(=O)(=O)NNC(=O)Nc2ccccc2OC)c(OC)c1 | 16.3
9 | CCSc1nnc(NC(=O)C2CCCN(S(=O)(=O)c3cnc[nH]3)C2)s1 (stereo not drawn) | -1.36
10 | Cc1ccccc1CC(=O)N1CCN(C(=O)C2CCCO2)CC1 (stereo not drawn) | 22.8
11 | Cc1nc(-c2nnc(-c3ccccc3)o2)c(C(F)(F)F)o1 | 7.01
12 | N=C1/C(=C\c2coc3ccccc3c2=O)C(=O)N=C2SC=CN12 | 15.3
13 | CCOc1ccccc1NC(=O)CNC(=O)N1CC(=O)Nc2ccccc21 | 11
14 | S=C(NCCc1ccc(Cl)cc1)Nc1ccc(Cl)cc1Cl | -3.8
15 | CC1CCC2(CC1)NC(=O)N(CC(=O)c1ccc[nH]1)C2=O (stereo not drawn) | 0.171
16 | CC(=O)N1c2ccc(S(=O)(=O)N3CCCCC3)cc2CC1C(=O)NCc1cccc(Cl)c1 (stereo not drawn) | -38.4
17 | COc1ccc(OC)c(S(=O)(=O)NC(N)=NCCc2ccccc2)c1 | 5.18
18 | COc1ccc(C2=NS(=O)(=O)N(C)C(C(=O)NCc3ccc(F)cc3)=C2)cc1OC | -59
19 | CC(C)c1ccc(C(=O)NCCCNC(=O)c2cnccn2)cc1 | 3.64
20 | Cc1ccc(NC(=O)CC2Oc3ccc(C)cc3NC2=O)c(C)c1 (stereo not drawn) | 14.5
21 | COc1cccc(CN(C)CC(=O)Nc2sc3c(c2C#N)CCC3)c1 | 8.07
22 | CC1CC(C)CN(S(=O)(=O)N2CCCC(C(=O)NCc3ccccc3Cl)C2)C1 (stereo not drawn) | 17.5
23 | O=C(OCc1cnc(Cl)s1)c1c(F)cccc1F | 28.7

Row | SMILES | hERG current change (%, negative = inhibition) at 10uM [%]
24 | CC(SC1=NCCS1)C(=O)Nc1nnc(-c2ccc(Br)cc2)s1 (stereo not drawn) | -17.1
25 | O=C(NC(=S)Nc1cccc2ncccc12)c1ccco1 | 9.21
26 | COc1ccc(NC(=O)/C(=C/c2cccs2)NC(=O)c2ccco2)cc1 | -21.1
27 | CC(C)(C)c1ccc(OCCCNC2CCCC2)cc1.O=C(O)C(=O)O | -54.5
28 | CCC(=O)c1ccc(OC(=O)N(C)c2ccccc2)cc1 | 12.7
29 | COc1ccc(CNC(=O)CCCNS(=O)(=O)c2cccc3nonc23)cc1 | -1.27
30 | CCCCCCN=C(C)c1c(O)n(Cc2ccccc2)c(=O)[nH]c1=O | -9.6
31 | CCc1c(C)nc(N2CCN(c3ccc(F)cc3)CC2)[nH]c1=O | 16.1
32 | COc1ccc(CCNC(=O)Nc2cccs2)c(OC)c1 | 14.6
33 | COc1ccccc1C(=O)Nc1ccnn1C1CCN(C(=O)c2ccoc2C)CC1 | -62.9
34 | Cc1ccc(CNC(=O)C(C(=O)NCc2ccc(C)o2)c2ncc(C(F)(F)F)cc2Cl)o1 | 13.6
35 | CCCc1nc2ccccc2n1CCOc1ccccc1 | -27.1
36 | CCc1ccc(-c2nc(SCC(=O)NC3CCCC3)n[nH]2)cc1 | -1.01
37 | CC1(C)CC2CC(C)(CN2c2ncnc3ccccc23)C1 (stereo not drawn) | -44.3
38 | CCN(CC(=O)NCc1cccs1)C(=O)CCC(=O)c1ccc(F)cc1 | -49.7
39 | CC(=O)N1CCN(c2ccc(NC(=S)NC(=O)c3ccccc3)cc2)CC1 | 2.73
40 | CCN1CCc2nc(N)oc2CC1.Cl | 1.67
41 | C/C(=N\NC(=O)c1nnn(-c2nonc2N)c1-c1cccs1)c1ccc(C)cc1 | -0.452
42 | Cc1ccc(S(=O)(=O)n2c(C)nc3cc(C)ccc32)cc1 | -3.01
43 | O=C(COc1cccc2ccccc12)N1CCN(c2ccccc2)CC1 | 7.7
44 | CC(C)CC(c1nnnn1Cc1ccco1)N1CCN(c2cccc(Cl)c2)CC1 (stereo not drawn) | 6.99
45 | COc1ccc(NC(=O)CSc2nc(-c3ccco3)nc3cc(=O)[nH]n23)cc1Cl | 8.71
46 | O=C(CN1CCOC1=O)N1CCCC(N2CCN(c3cccc(C(F)(F)F)c3)CC2)C1 (stereo not drawn) | -1.16

Row | SMILES | hERG current change (%, negative = inhibition) at 10uM [%]
47 | COc1cc(S(=O)(=O)Nc2ccccn2)ccc1F | 20.2
48 | CC(=O)OCC(=O)N1CCN(c2ccc([N+](=O)[O-])cc2)CC1 | -63.3
49 | O=C(CCN=C1NS(=O)(=O)c2ccccc21)Nc1ccc(Cl)cc1F | 4.94
50 | Cc1cc(NC(=O)Nc2ccc(Cl)c(Cl)c2)no1 | 12.2
51 | COc1ccc(/C=N/NC(=S)Nc2ccccc2)cc1 | 24.3
52 | COc1ccc(CCN=C(N)NS(=O)(=O)c2ccc(OC)c(OC)c2)cc1OC | 1.58
53 | C=CCNC(=S)NNC(=O)Cn1c(-c2ccccc2)cc(=O)n2ncnc12 | 18.5
54 | O=C(c1cccc([N+](=O)[O-])c1)c1ccc2[nH]c(=O)[nH]c2c1 | 17.8
55 | O=S(=O)(/N=C(/NC(=S)Nc1ccccc1)c1ccccc1)c1ccc(Cl)cc1 | 18.9
56 | COc1ccc(NC2C=CS(=O)(=O)C2)c(OC)c1 (stereo not drawn) | -2.02
57 | O=P(O)(c1ccccc1)c1ccccc1O | -7.16
58 | CCCC(=O)Nc1ccccc1NC(=O)c1ccc2c(c1)OCO2 | 12.4
59 | COCCNC(=S)N(CCc1c(C)[nH]c2ccc(F)cc12)Cc1cccs1 | 8.34
60 | c1ccc(Cn2c(Sc3nnnn3-c3ccccc3)nnc2-c2ccccc2)cc1 | -19.6
61 | O=C(Nc1cc(=O)[nH]c2nc(-c3ccc(Cl)cc3)nn12)c1ccccc1 | 9.56
62 | CCOc1ccc(C(=O)c2nc3c(n2O)CCCC3)cc1 | 18.5
63 | COc1ccc(-c2n[nH]c(=S)n2C2CCCCC2)cc1 | 20.2
64 | COc1ccccc1CNC(=O)C(Cc1c[nH]c2ccccc12)NC(=O)OCc1ccccc1 (stereo not drawn) | -9.86
65 | CCOc1c(Cl)cc(/C=C/C(=O)N(CC)CC(=O)NCc2cccs2)cc1OC | -55.4
66 | CCOC(=O)c1ccc(Nc2sc(C(=O)c3cccc([N+](=O)[O-])c3)c(N)c2C#N)cc1 | 14.7
67 | CCN1CCN(C(=O)Nc2ccccc2OC)CC1.O=C(O)C(=O)O | 11
68 | CC(C)(C)C(O)CN1CCCC1.Cl (stereo not drawn) | -5.14
69 | O=Cc1ccc(N2CCCCC2)cc1 | 6.5

Row | SMILES | hERG current change (%, negative = inhibition) at 10uM [%]
70 | CCNC(=S)N(CCCN(CC)CC)Cc1cc2cc3c(cc2[nH]c1=O)OCO3 | 1.75
71 | CCOC(=O)C1CCN(C(=O)CCc2nnc3ccc(N4CCC(C)CC4)nn23)CC1 | -31
72 | O=C(NCCN1CCN(S(=O)(=O)c2ccccc2)CC1)C(=O)Nc1ccc(F)cc1 | 4.82
73 | Cn1c(NC(=O)c2ccc(S(=O)(=O)N3CCOCC3)cc2)cc(=O)n(C)c1=O | 21.1
74 | FC(F)Oc1cccc2cccnc12 | 8.31
75 | c1ccc(Nc2nc(-c3ccccc3)nc3ccccc23)cc1 | 13.3
76 | COc1ccc(N2CCN(C(=O)Cc3ccc(OC)c(OC)c3)CC2)cc1 | 6.38
77 | COc1ccc(C2/C(=C(\O)c3cccc(OC)c3)C(=O)C(=O)N2c2ccccn2)cc1 (stereo not drawn) | 0.0512
78 | Cc1oc(-c2cccs2)nc1CN1CCC(C(=O)N2CCCC2)CC1 | -11.2
79 | CCOC(=O)c1c(-c2ccccc2)oc2ccc(OCC(=O)NNC(=O)CCC(=O)O)cc12 | 17.6
80 | O=C(CSc1ncnc2nc[nH]c12)c1ccc2ccccc2c1 | 13.1
81 | COC(=O)c1cc(C(=O)OCC(=O)NC2CCCCCCC2)cc([N+](=O)[O-])c1 | -7.58
82 | CC1CCCCN1C(=S)NC(=O)c1cccs1 (stereo not drawn) | 8.08
83 | Cc1c(NC(=O)c2ccc(-c3cccc([N+](=O)[O-])c3)o2)c(=O)n(-c2ccccc2)n1C | -3.64
84 | Nc1sc(-c2ccccc2)cc1C(=O)N/N=C/c1ccc(Cl)cc1 | 18.1
85 | CC1(C)Cc2c(sc3c2C(=O)NC(c2cccnc2)N3)CO1 (stereo not drawn) | 1.61
86 | CC(C)Oc1ccc(C(=O)Nc2ncn[nH]2)cc1 | 7.72
87 | COCCN1C(=O)C(=O)/C(=C(/O)c2ccc(S(=O)(=O)N3CCOCC3)cc2)C1c1cccc([N+](=O)[O-])c1 (stereo not drawn) | 14.4
88 | CCc1cccc(C)c1NC(=S)NCC(c1cccnc1)N(C)C (stereo not drawn) | 5.1
89 | COc1ccc(C(=O)c2c[nH]c(C(=O)NCC3CCCO3)c2)cc1 (stereo not drawn) | 6.77
90 | Cc1ccccc1CSc1nnc(-c2ccccn2)n1C | -1.96
